# Laboratory results as given in PubChem BioAssay AID1963576 (National Center for Advancing Translational Sciences (NCATS), 2024).
# Screen size: about 46,000 compounds; about 60 (0.1%) were called active. Another 3% or so got no clear call; they are omitted. The call rests on the fitted dose curve; in most records, active means well fitted inhibition curve with a large enough effect; inconclusive means small, poorly fitted or top-dose-only effect; inactive means no such curve, though single readings can be large or run the other way. This is one part of the list.
# Assay: Primary qHTS assay for Inhibitors of ovarian cancer metastasis using an organotypic tumor microenvironment (TME) model. Further: nearly all actives have a fitted effect of over 65% in size.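 On activity change, negative = inhibition: plate controls were DMSO wells for no effect and tomatine positive control wells for full effect.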
# Conditions: SKOV3ip1-GFP adhesion/invasion on 3D omental model, fluorescence; series mostly up to 45.8 µM; activity change, negative = inhibition: at the top concentration
# Method in brief: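 Primary human omental fibroblast/mesothelial 3D culture pre-formed 48 h. SKOV3ip1-GFP cells added with compounds (0.36-46 umol/L), incubated 2 h RT/16 h 37 C, fixed; GFP cells quantified at 488/509 nm.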
Compound,"activity change, negative = inhibition",outcome
COCCNC(=O)c1cnn(-c2ccc(C)cc2C)c1C1CCN(C(=O)OC(C)(C)C)CC1,inactive: 1.52%,
Cn1cc(CN(C(=O)Nc2ccc(Cl)c(Cl)c2)C2CCCCC2)c2ccccc21,,inactive
CN(C)CCOc1ccc(-c2nc(-c3ccc4c(c3)CCC4=NO)c(-c3ccncc3)[nH]2)cc1,inactive: -3.95%,
COCCNC(=O)Cc1ccc(NC(=O)N2CCCCc3ccccc32)cc1,inactive: 4.78%,
O=C(NCc1ccc(F)cc1)c1ccc(CSCc2cccc(Cl)c2)o1,inactive: 5.82%,
CCN(Cc1ccccc1)C(=O)c1c(C)oc2ncn(C)c(=O)c12,inactive: 9.24%,
CCOc1ccc(C(=O)Nc2cc(-c3nc4ccccc4o3)ccc2C)cc1Cl,,inactive
Cc1cc(C)nc(NS(=O)(=O)c2ccc(NC(=O)COc3ccc(Cl)cc3C)cc2)n1,inactive: 0.627%,
O=C(CSc1nccn1Cc1ccccc1)NCc1ccc(F)cc1,inactive: 1.79%,
CCOc1cc(-c2ccc(OC(=O)c3ccccc3F)cc2)cc(=O)c2c(C)oc(C)c12,inactive: -15.1%,
CC1CN(C(=O)Nc2ccc(C(=O)NCCc3ccccc3)cc2)c2ccccc2S1 (stereo not given),inactive: 0.532%,
Clc1cccc(N2CCN(c3nc4ccccc4n4cnnc34)CC2)c1,inactive: 0.319%,
COc1ccc(NC(=O)CCc2nnc3n(C)c(=O)c4sccc4n23)cc1,inactive: -15.6%,
COc1ccc(-n2ccnc(NCc3ccc(Cl)cc3)c2=O)cc1,inactive: -1.71%,
COc1ccc(-n2nc3ccc(NC(=O)c4ccc(-c5cc(Cl)ccc5Cl)o4)cc3n2)cc1,inactive: 13.6%,
Cc1c(Cl)ccc2sc(NC(=O)c3ccc(S(=O)(=O)N4CCCc5ccccc54)cc3)nc12,inactive: 6.63%,
CCCc1cnc2c(c1SCC(=O)N(C)c1ccccc1)c(=O)n(C)c(=O)n2C,inactive: -25.9%,
Cc1ccc(CCNC(=O)c2cc3sccc3n2Cc2ccc(C)cc2)cc1,,inactive
Cc1c(Cl)cccc1-c1ccc(CNc2ccc3[nH]c(=O)[nH]c3c2)o1,inactive: -18.6%,
O=C(Nc1ccc(Br)c2cccnc12)c1cccc2ccccc12,,inactive
CCN(c1cc(C)cc(C)c1)S(=O)(=O)c1nnc(NC(=O)C2CCCCC2)s1,,inactive
Cc1cc(C)cc(NC(=O)CCC(=O)N2Cc3ccccc3Oc3ncccc32)c1,inactive: -18.1%,
COc1cccc(NC(=O)C2CCCN(S(=O)(=O)c3c(C)[nH]c(=O)[nH]c3=O)C2)c1 (stereo not given),inactive: 20.3%,
COc1ccc(NC(=O)c2oc3ccccc3c2NC(=O)c2cccc(F)c2)c(OC)c1,,inactive

Compound,"activity change, negative = inhibition",outcome
CCOc1ccc(NC(=O)Cn2c(=O)n(Cc3ccco3)c(=O)c3oc4ccccc4c32)cc1,,inactive
CC1CCN(S(=O)(=O)c2ccc3c(c2)oc(=O)n3CC(=O)NCc2ccc(F)cc2)CC1,inactive: -9.01%,
Cc1cc(C)cc(-n2c(SCC(=O)N3CCCCC3)nc3c([nH]c4ccccc43)c2=O)c1,inactive: -6.09%,
CCc1ccccc1NC(=O)c1nnn(-c2ccc(F)cc2)c1C,inactive: 0.836%,
COc1cc2ccccc2cc1C(=O)Nc1ccc2oc(-c3ccc(F)cc3)nc2c1,inactive: 1.18%,
Cc1cccc(N2CCN(C(=O)NCc3noc4ccccc34)CC2)c1C,inactive: 6.06%,
COc1ccc(CNC(=O)c2cc3c(=O)[nH]c4ccccc4c3s2)cc1,inactive: 3.98%,
Cc1ccc(SCc2nc(-c3ccc(C(=O)NCc4ccc(Cl)cc4)cc3)oc2C)cc1,inactive: -16.9%,
Cc1ccn2c(=O)cc(CSc3nnc(NC(=O)c4ccccc4Cl)s3)nc2c1,,inactive
COc1cc(C(=O)Nc2nc3nc(-c4ccccc4)cc(=O)n3[nH]2)cc(OC)c1OC,inactive: 12.7%,
COc1cc(NC(=O)c2noc3c2CSc2ccccc2-3)cc(OC)c1OC,inactive: -4.25%,
O=C(NC1CCCCC1)c1cc(Nc2cccc(C(F)(F)F)c2)nc2ccccc12,inactive: 6.14%,
CCN(Cc1ccccc1)C(=O)c1nc(-c2cccc(F)c2)n2c1CCCCC2,inactive: 6.2%,
COCCCNC(=O)C1CCCN(C(=O)c2cnn(-c3ccc(F)cc3)c2-n2cccc2)C1 (stereo not given),,inactive
Cc1ccn2c(Nc3ccccc3C)c(-c3ccccn3)nc2c1,inactive: -12.7%,
COc1ccc(Cl)cc1NC(=O)Cn1c(=O)n(Cc2ccco2)c(=O)c2cccnc21,,inactive
CCn1c(=O)n(CC)c2cc(N3CCCCC3)c(NC(=O)Nc3cc(C)cc(C)c3)cc21,inactive: 3.55%,
CCn1cc(C(=O)N2CCN(c3cc(C)ccc3C)CC2)c(=O)c2cc(S(=O)(=O)N3CCOCC3)ccc21,inactive: -23.7%,
Cc1cccc(-c2noc(CN(C(=O)COc3ccc(Br)cc3C)C(C)C)n2)c1,,inactive
OCCCc1nc2ccccc2n1CCCCOc1ccccc1,inactive: 3.4%,
CCOc1ccc(NC(=O)C(NS(=O)(=O)c2cccc3nsnc23)c2ccccc2)cc1 (stereo not given),,inactive
O=C(NC1CCCCC1)c1cc2c(Cl)nc3ccccc3c2s1,,inactive
COc1ccccc1CNC(=O)C(=O)NCC(c1ccco1)S(=O)(=O)c1cccs1 (stereo not given),inactive: -5.07%,
COc1ccc(C(=O)NCCn2cc(SCC(=O)Nc3cccc(C)c3)c3ccccc32)cc1,,inactive

Compound,"activity change, negative = inhibition",outcome
COc1cc(-c2nc3nc[nH]n3c2Nc2ccc(C(C)C)cc2)ccc1O,,inactive
CCc1nn(-c2ccccc2)c2nc(-c3cccc(OC)c3)c3cc(OC)c(OC)cc3c12,,inactive
Cc1oc2ncn(CC(C)C)c(=O)c2c1C(=O)N1CCN(c2cccc(C(F)(F)F)c2)CC1,inactive: 11.3%,
CCOC(=O)C1CCN(C(=O)Cn2c(=O)cc(C)c3c(C)nn(C)c32)CC1,inactive: 1.33%,
Cc1ccc(C)n1-c1c(C(=O)NCCC(C)C)sc2ncccc12,inactive: -2.22%,
COCCc1nn2c(=O)cc(COC(=O)c3ccc(OC)c(OC)c3)nc2s1,inactive: 3.82%,
CCOC(=O)c1ccccc1NC(=O)Cn1c(=O)n(Cc2nc(-c3ccccc3)no2)c(=O)c2ccccc21,inactive: 4.46%,
COc1ccccc1N1CCN(C(=O)Cn2ncc3c([nH]c4ccccc43)c2=O)CC1,,inactive
COc1cccc(NC(=O)CSC2=Nc3ccccc3C3=NC(CC(=O)NCCc4ccccc4)C(=O)N23)c1 (stereo not given),inactive: 1.64%,
Cc1ccc(CNC(=O)CCCCn2c(=O)c3ccccc3n(Cc3c(C)cc(C)cc3C)c2=O)cc1,,inactive
COc1cccc(NC(=O)CSC2=Nc3ccccc3N=C(c3ccc(F)cc3)C2)c1,inactive: 4.13%,
O=C(c1ccc2c(c1)N(Cc1ccccc1F)C(=O)c1ccccc1S2(=O)=O)N1CCCCC1,inactive: -11.3%,
CCc1ccc(C(=O)c2cn(CC(=O)NCCc3ccc(OC)c(OC)c3)c3nc(C)ccc3c2=O)cc1,inactive: 2.23%,
O=C(CCc1nc(CN2CCN(S(=O)(=O)c3ccc(F)cc3)CC2)no1)N1CCCCC1,inactive: 3.49%,
CCc1ccc(-n2c(SCc3ccccc3F)nc3[nH]ncc3c2=O)cc1,inactive: -18.1%,
O=C(Nc1cc2cc[nH]c2cn1)c1ccccc1,inactive: 6.58%,
COc1ccc(OC)c(S(=O)(=O)N2CCC(c3ccncc3)CC2)c1,inactive: -2.07%,
COc1ccc(S(=O)(=O)Nc2cccnc2Nc2ccc(O)cc2)cc1,inactive: 5.91%,
Cc1ccc(NC(=O)c2cccc(N(C)C)c2)cc1NC(=O)c1ccc(O)cc1,inactive: -5.33%,
O=C1NCCc2[nH]c(-c3ccncc3)cc21,inactive: 23.6%,
O=c1nc2sc3ccccc3n2c(=O)n1-c1ccc(Cl)c(Cl)c1,inactive: 5.35%,
O=C(CCC1N=C2c3ccccc3N=C(SCC(=O)Nc3ccccc3F)N2C1=O)NCc1ccccc1 (stereo not given),inactive: -7.53%,
CCN1CCN(C(=O)c2cnn(-c3ccc(F)cc3)c2-n2cccc2)CC1,,inactive
Cc1ccc(C2C=C(c3ccc(Cl)cc3)Nc3nc(NS(=O)(=O)c4ccccc4)nn32)cc1 (stereo not given),,inactive

Compound,"activity change, negative = inhibition",outcome
COc1ccccc1NC(=O)Cn1c(=O)n(-c2cccc(C(C)=O)c2)c(=O)c2c3c(sc21)CN(C(C)=O)CC3,,inactive
Cc1ccc(NC(=O)c2sc3nc(-c4cc5ccccc5oc4=O)[nH]c(=O)c3c2C)c(C)c1,inactive: 1.96%,
CCC(=O)N1CCc2cc(S(=O)(=O)NC(Cc3ccccc3)C(=O)Nc3ccc(C)cc3)ccc21 (stereo not given),inactive: 7.55%,
COc1ccccc1-c1noc(-c2ccc(N3CCC(C)CC3)c([N+](=O)[O-])c2)n1,,inactive
COc1cc(C(=O)Nc2cc3c(cc2C)n(C)c(=O)c(=O)n3C)cc(OC)c1OC,inactive: -8.54%,
COc1cc(C(=O)Nc2cc(C)ccc2OCc2cc(=O)n3c(C)csc3n2)cc(OC)c1OC,inactive: 2.43%,
CCN1C(=O)c2ccccc2Sc2ccc(NC(C)=O)cc21,,inactive
CCOc1ccc(-n2c(SCc3ccc(C(=O)OC)o3)nc3c([nH]c4ccccc43)c2=O)cc1,inactive: 74%,
CCCc1cc(=O)[nH]c(Nc2cccc(Cl)c2Cl)n1,inactive: 6.35%,
CCOc1ccc(-c2cc(OC(=O)c3ccc(F)cc3)c3c(C)oc(C)c3c(=O)c2)cc1,inactive: -0.176%,
O=C(CC1Sc2ccc(C(F)(F)F)cc2NC1=O)Nc1ccc(Cl)c(C(F)(F)F)c1 (stereo not given),,inactive
COc1ccc(NC(=O)c2cc3c(s2)-c2c(C)cccc2OC3)c(OC)c1,inactive: -9.42%,
O=C(Nc1ccc(Br)cc1F)c1cc(S(=O)(=O)NCc2ccc(F)cc2)ccc1F,,inactive
COc1ccc(CCNC(=O)c2cc3c(-c4ccccc4F)nn(C)c3s2)c(OC)c1,,inactive
CCOC(=O)C1CCCN(S(=O)(=O)c2ccc3c(c2)CCCN3C(C)=O)C1 (stereo not given),inactive: -5.79%,
CSc1ncc(C(=O)Nc2ccccc2C(=O)c2ccccc2)c(C(F)(F)F)n1,inactive: -7.62%,
CCc1nn(CC(=O)NCCCN(CC)CC)c(=O)c2cc3sc(C)cc3n12,inactive: -2.2%,
CCOC(=O)c1cccc(NC(=O)c2cc3c(=O)n(Cc4ccccc4)ccc3nc2C)c1,,inactive
Fc1ccc(-n2cc(-c3ccccc3)c3c(NC4CCCCC4)ncnc32)cc1,inactive: -1.8%,
C=C(C)Cn1c(=O)c2c(nc3n2CCN3c2ccc(CC)cc2)n(C)c1=O,inactive: 5.95%,
CCCCNc1nc(Oc2ccc(=O)[nH]n2)nc(N(C)C)n1,inactive: 0.319%,
CCn1c2ccccc2c2nnc(N3CCN(c4cc(C)ccc4C)CC3)nc21,inactive: 3.51%,
COc1ccc(NC(=O)CN(Cc2ccccc2)S(=O)(=O)c2ccc(C)cc2)cc1Cl,,inactive
